# Measurements reported in the supplement of paper PMC3334620.
# The full ranking holds about 33,000 sequences; the median of “E-score (-0.5 to 0.5)” is about -0.012, and the highest 2% start at about 0.29. The list shows a part of the results.
# Target: T1, Ybr033w (UniProt P38073)
# T1 sequence: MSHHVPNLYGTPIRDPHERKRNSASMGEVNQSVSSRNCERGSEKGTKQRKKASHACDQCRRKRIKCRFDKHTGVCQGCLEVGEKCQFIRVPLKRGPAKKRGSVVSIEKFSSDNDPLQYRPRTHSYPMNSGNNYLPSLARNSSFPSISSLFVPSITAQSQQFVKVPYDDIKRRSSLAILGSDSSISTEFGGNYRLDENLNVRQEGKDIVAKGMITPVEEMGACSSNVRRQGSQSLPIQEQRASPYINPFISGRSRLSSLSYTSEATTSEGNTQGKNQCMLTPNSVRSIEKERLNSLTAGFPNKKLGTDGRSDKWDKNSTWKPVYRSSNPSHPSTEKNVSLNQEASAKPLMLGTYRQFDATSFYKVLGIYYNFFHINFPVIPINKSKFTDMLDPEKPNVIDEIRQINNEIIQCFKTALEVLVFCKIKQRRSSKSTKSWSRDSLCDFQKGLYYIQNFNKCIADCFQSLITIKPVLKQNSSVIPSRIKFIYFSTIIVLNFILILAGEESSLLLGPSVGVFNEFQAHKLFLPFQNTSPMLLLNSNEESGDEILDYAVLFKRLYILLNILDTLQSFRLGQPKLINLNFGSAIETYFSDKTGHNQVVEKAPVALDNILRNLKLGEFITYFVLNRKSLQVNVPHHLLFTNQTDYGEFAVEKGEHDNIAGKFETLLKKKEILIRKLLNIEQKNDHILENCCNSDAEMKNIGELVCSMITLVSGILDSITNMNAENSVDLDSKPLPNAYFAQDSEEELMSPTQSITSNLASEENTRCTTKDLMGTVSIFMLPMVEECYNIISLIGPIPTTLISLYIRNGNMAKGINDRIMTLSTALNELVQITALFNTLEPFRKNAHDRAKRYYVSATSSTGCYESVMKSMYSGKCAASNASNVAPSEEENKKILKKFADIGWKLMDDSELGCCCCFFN
# Assay: PBM E-score (8-mer binding enrichment) (E-score (-0.5 to 0.5)); higher = stronger / more preferred TF binding; most listed sequences are background and not binding sites
# Conditions: protein concentration: 200 nM; construct: GST-full length
# In short: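 Using PURExpress in vitro transcription/translation, GST-tagged yeast transcription factors were made in full-length or DNA-binding-domain form. These were applied at about 100-200 nM to double-stranded universal all-10-mer Agilent arrays, and bound protein was detected with fluorescent anti-GST. Scans were normalised with masliner before the Universal PBM Analysis Suite assigned E-scores to ungapped eight-base words pooled with their reverse complements.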
row,Sequence,PBM E-score
1,CATGAAGC,-0.0855
2,GTGGCTTA,-0.226
3,CGGTAGGC,-0.155
4,CTTCCAAC,0.109
5,GAGGCTTA,-0.113
6,CGCAGTCC,-0.126
7,CGTAGCAA,-0.0234
8,AGTGTACA,0.074
9,AGGGGAGA,-0.277
10,TTTTAAAA,0.073
11,TCTCGGCA,-0.181
12,CCCCTTAA,-0.15
13,ACACATAA,0.251
14,GCACGCAC,-0.253
15,TCACGCGA,0.0143
16,AACGGGAG,0.0655
17,AAGCTGCT,0.0726
18,TAGACGGA,0.121
19,GCGGGACC,-0.17
20,GAGCTTTA,-0.111
21,ACCTCACT,-0.0376
22,CCTCGAGA,-0.183
23,ACACGTAG,-0.257
24,CCCGACGA,0.0436
25,CCTAGTAG,-0.0358

row,Sequence,PBM E-score
1,ATTGATAA,0.222
2,CCTGGTAA,-0.219
3,CAGATGGG,-0.0813
4,ACCATCGT,-0.0633
5,GTCCCGGA,-0.115
6,ACCGAATA,0.0542
7,CAAGACGG,-0.267
8,AGCACAAA,0.205
9,GAGTTTTA,0.146
10,CACCATGC,-0.0326
11,GCGGAATA,0.293
12,GCATGAAC,0.0783
13,CGGCGTTC,-0.104
14,CGCATACA,0.0637
15,TATACAGA,0.256
16,GCGGTAGA,-0.109
17,ACTCTTAT,0.284
18,CATCGCAC,-0.136
19,CGCGTCTC,-0.0288
20,TCAGGACA,0.0719
21,GACCGTTA,-0.0688
22,ACCCACTG,0.0586
23,CAGTACCC,-0.184
24,ACCTAAAA,0.1
25,GGCGTTCA,-0.0197

row,Sequence,PBM E-score
1,ACACTACA,0.17
2,CGTGACGA,0.0211
3,TCCCGCAA,-0.0556
4,GATCACGC,0.0676
5,GGAGTTGA,-0.0103
6,ACGGAGGC,-0.0923
7,CCAGTAGG,-0.077
8,ACGAATAG,0.026
9,CTCCTAGC,-0.17
10,TATTACCA,0.196
11,ACTCTCCG,0.00209
12,TATAGTAA,0.282
13,CCCCCCTC,-0.377
14,TAGTACGA,0.119
15,AAGCGCAT,-0.0621
16,CGAGTCGC,-0.117
17,GACAACAC,-0.223
18,ACCAATTA,0.221
19,AGCTACAA,0.0561
20,ATGATGGC,-0.0701
21,ACGAGAGA,-0.103
22,AAATCACA,0.052
23,ATTCAGTC,-0.0995
24,AAAATAGA,0.332
25,CGATCCCC,-0.34

row,Sequence,PBM E-score
1,AGCGGCCA,-0.238
2,CCCGTGCC,-0.302
3,GATGCTAC,0.0488
4,CAGTTATC,-0.0111
5,AGTGCTGC,-0.0461
6,CTATGAGA,0.042
7,CAGGTTAA,-0.00969
8,AAACTCTA,0.161
9,AAAATCTA,0.289
10,GTTTTTAA,0.158
11,AACCCATA,0.259
12,ATCGCCGG,-0.103
13,ACCGTCGG,-0.203
14,AGTGACTG,-0.123
15,AGCTCAAC,0.104
16,ACCCCTCG,-0.119
17,GCTCCACC,-0.305
18,AACTCGGT,0.105
19,AATGAAAT,0.282
20,AACATTGT,0.158
21,AGTATCCC,-0.135
22,AAAAAGAA,0.22
23,GCTCTACC,-0.168
24,TCTCTGAA,-0.0463
25,ATAGAATC,0.035

row,Sequence,PBM E-score
1,AATTACGG,0.176
2,ACATGATG,-0.00243
3,CCAGACCG,-0.116
4,GTAAGAAA,0.0934
5,CATCCACC,0.0603
6,AGCCTCGC,-0.197
7,AGCATTGG,0.103
8,AACGAGTC,-0.115
9,GTGAGTCA,-0.00046
10,ATTAGTGA,0.102
11,CATAACCA,0.0466
12,AGCCCGGC,-0.228
13,CCCACAGC,-0.146
14,AAAGTACT,0.177
15,ATAATTAG,0.272
16,AAAGCGTC,-0.071
17,TCCCATCA,-0.0886
18,ACCATGTG,-0.0472
19,GTACAAAC,0.0352
20,GCGTGGAA,-0.0974
21,TATGGTAA,0.178
22,GGCATGTA,0.0243
23,AACCCAGG,-0.0839
24,ATTGCGAA,-0.019
25,AGTCGGTA,-0.146

row,Sequence,PBM E-score
1,ACTCTACC,-0.0555
2,ATCATGCC,-0.0169
3,TGGAAGAA,0.347
4,GGTGGTAA,0.137
5,GAGACTCC,-0.173
6,CAAAAGTG,-0.0857
7,CGCTGTCC,0.0111
8,AGGAGAGA,0.0939
9,GTCAAGTA,-0.298
10,CGAAAGTC,-0.239
11,GTCCACTA,-0.0107
12,AGTAAAAG,0.229
13,CACTGCGC,-0.0775
14,AAAGAGTG,-0.0808
15,CGCGTGTC,0.0664
16,TATGGGCA,-0.2
17,GCGGCCCC,-0.401
18,TGTTTAAA,0.143
19,AGGTCAGG,-0.233
20,ATCTGGAC,-0.177
21,ATTTTAGC,0.102
22,GGATTTCA,0.0761
23,ATTAGGTG,0.115
24,ACAGCTAA,0.0682
25,ACCTGGTA,-0.211

row,Sequence,PBM E-score
1,GAAAAGCC,0.0336
2,ATCATACA,0.25
3,ATCATTAG,0.16
4,GAACAAGC,-0.0592
5,CTTGGTCA,0.183
6,GCACGCTA,-0.131
7,GCGGAAGA,0.236
8,CGCTCATC,-0.0261
9,CAGATCGC,-0.164
10,GGGTCACC,-0.308
11,ATATCCCC,-0.0237
12,AGCGGGAG,-0.0882
13,AGGGCTAC,-0.247
14,ATGGGTCC,-0.26
15,AGCAGCTC,-0.194
16,ACGGTCCC,-0.258
17,AGCAAACC,0.145
18,CGGTCACG,-0.212
19,GCCGGCTA,-0.148
20,ATCTAGTC,0.026
21,CGTTATGA,0.0351
22,CGTCCTCC,-0.314
